# Reference: ChEMBL document CHEMBL5606458, “ASAP - ZIKV NS2B-NS3 protease fluorescence single point” (2024)
# Out of some 2,700 compounds screened, about 160 (5.9%) showed an effect of 50% or more. This is one part of the list.
# Target: Nonstructural protein 3 (Zika virus) (UniProt A0A024AXB9)
# [1] = PRVABC59, Concentration 15.0 uM, Number of replicates 1.0
# [2] = PRVABC59, Concentration 50.0 uM, Number of replicates 1.0
# [3] = PRVABC59, Concentration 10.0 uM, Number of replicates 1.0
# Sequence of UniProt A0A024AXB9 (A0A024AXB9 as listed by the source): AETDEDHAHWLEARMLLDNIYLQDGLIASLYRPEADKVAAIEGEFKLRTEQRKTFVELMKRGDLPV
compound,measurement,setting,value
COc1cc(CCNC(=O)c2cc(Cl)ccc2NS(=O)(=O)c2ccc(Oc3ccccc3Cl)cc2)cc(OC)c1O,inhibition,[1],29.1%
C[C@H](NC(=O)c1cc(Cl)ccc1NS(=O)(=O)c1ccc(Oc2ccccc2Cl)cc1)c1ccc2c(c1)OCCCO2,inhibition,[1],29.3%
Cn1cc(NC(=O)c2ccccc2C(F)(F)F)c(-c2cnn(C)n2)n1,inhibition,"PRVABC59, Concentration 49.5 uM, Number of replicates 2.0, Standard deviation 3.8222474524095547 %",0.532%
same,inhibition,"PRVABC59, Concentration 99.01 uM, Number of replicates 2.0, Standard deviation 1.4785352165847228 %",-0.82%
same,inhibition,"PRVABC59, Concentration 198.0 uM, Number of replicates 2.0, Standard deviation 0.9946836637082618 %",-2.64%
Cc1cc(Cl)c2cccc(NC(=O)CCN)c2n1,inhibition,"PRVABC59, Concentration 49.95 uM, Number of replicates 2.0, Standard deviation 0.2024559271573544 %",95.1%
same,inhibition,"PRVABC59, Concentration 99.9 uM, Number of replicates 2.0, Standard deviation 0.15816464699422608 %",91.2%
O=C(O)c1cccc(NC(=O)c2cccnc2)c1,inhibition,"PRVABC59, Concentration 49.5 uM, Number of replicates 2.0, Standard deviation 0.6620888840867353 %",-0.418%
same,inhibition,"PRVABC59, Concentration 99.01 uM, Number of replicates 2.0, Standard deviation 1.469463697498632 %",2.14%
same,inhibition,"PRVABC59, Concentration 198.0 uM, Number of replicates 2.0, Standard deviation 1.8949438882362333 %",5.49%
Cc1cc(C)nc(CCNC(=O)c2cc(Cl)ccc2NS(=O)(=O)c2ccc(Oc3ccccc3Cl)cc2)n1,inhibition,[1],7.5%
COc1cc2nc(Cl)nc(NC(=O)C3CCN(c4ccc(C=O)cc4)CC3)c2cc1OC,inhibition,[2],24.4%
Cc1ccc(CN(C(=O)C2CCN(c3ccc(C=O)cc3)CC2)C2CC2)s1,inhibition,[2],27.6%
CCCCCCCCCCNC(=O)C1CCN(c2ccc(C=O)cc2)CC1,inhibition,[2],22.7%
NC(=O)c1sccc1NS(=O)(=O)c1ccc(Oc2ccccc2)cc1,inhibition,"PRVABC59, Concentration 49.5 uM, Number of replicates 2.0, Standard deviation 0.4763028837207658 %",3.73%
same,inhibition,"PRVABC59, Concentration 99.01 uM, Number of replicates 2.0, Standard deviation 0.39278030543933307 %",8.2%
same,inhibition,"PRVABC59, Concentration 198.0 uM, Number of replicates 2.0, Standard deviation 0.5485388731457692 %",15.3%
O=C(c1cc(Cl)ccc1NS(=O)(=O)c1ccc(Oc2ccccc2Cl)cc1)N1CCN(CCOCCO)CC1,inhibition,[1],-0.703%
Cc1noc([C@@H]2CCCCN2C(=O)c2cc(Cl)ccc2NS(=O)(=O)c2ccc(Oc3ccccc3Cl)cc2)n1,inhibition,[1],20.8%
O=Cc1ccc(N2CCC(C(=O)NCCSc3ccc(Cl)cc3)CC2)cc1,inhibition,[2],-3.35%
O=Cc1ccc(N2CCC(C(=O)NCc3ccc(I)cc3)CC2)cc1,inhibition,[3],19.4%
O=C(Nc1cccc(O)c1)c1cccc(OCc2c(Cl)cccc2Cl)c1,inhibition,"PRVABC59, Concentration 49.5 uM, Number of replicates 2.0, Standard deviation 2.5164150167444057 %",9.1%
same,inhibition,"PRVABC59, Concentration 99.01 uM, Number of replicates 2.0, Standard deviation 0.35948766686360767 %",9.02%
same,inhibition,"PRVABC59, Concentration 198.0 uM, Number of replicates 2.0, Standard deviation 1.1241130951499425 %",12.5%
C[C@H](NC(=O)C1CCN(c2ccc(C=O)cc2)CC1)c1cc(F)ccc1F,inhibition,[3],20.5%
O=C(CNC(=O)c1cc(Cl)ccc1NS(=O)(=O)c1ccc(Oc2ccccc2Cl)cc1)c1ccc(O)cc1,inhibition,[1],52.2%
C#CCN(C(=O)c1cc(Cl)ccc1NS(=O)(=O)c1ccc(Oc2ccccc2Cl)cc1)[C@@H](C)Cc1ccccc1,inhibition,[1],25.7%
COc1cc(COc2cc(C)nc3ncnn23)nc(N2CCNCC2)n1,inhibition,"PRVABC59, Concentration 49.5 uM, Number of replicates 2.0, Standard deviation 2.68247440066745 %",1.51%
same,inhibition,"PRVABC59, Concentration 99.01 uM, Number of replicates 2.0, Standard deviation 1.6078501771858478 %",0.374%
same,inhibition,"PRVABC59, Concentration 198.0 uM, Number of replicates 2.0, Standard deviation 1.0644090707345926 %",1.09%
Cc1cc(CO)c2cccc(NC(=O)CCC3CCNCC3)c2n1,inhibition,"PRVABC59, Concentration 49.95 uM, Number of replicates 2.0, Standard deviation 0.05519955890732387 %",98.6%
same,inhibition,"PRVABC59, Concentration 99.9 uM, Number of replicates 2.0, Standard deviation 0.045159842417240824 %",96.7%
O=C(c1cc(Cl)ccc1NS(=O)(=O)c1ccc(Oc2ccccc2Cl)cc1)N1CCN(Cc2cccc3ccccc23)CC1,inhibition,[1],10.7%
CN(C)CCCN(CCCN(C)C)C(=O)C1CCN(c2ccc(C=O)cc2)CC1,inhibition,[2],23.2%
O=Cc1ccc(N2CCC(C(=O)N3CCC(Oc4cnccn4)CC3)CC2)cc1,inhibition,[2],27.3%
O=C(Nc1ccc(Cl)nc1Cl)c1cc(Cl)ccc1NS(=O)(=O)c1ccc(Oc2ccccc2Cl)cc1,inhibition,[1],23.5%
NCCOc1ccc2c(c1)B(O)OC2,inhibition,"PRVABC59, Concentration 49.5 uM, Number of replicates 2.0, Standard deviation 5.911654033689354 %",-3.39%
same,inhibition,"PRVABC59, Concentration 99.01 uM, Number of replicates 2.0, Standard deviation 4.227955018150725 %",-2.53%
same,inhibition,"PRVABC59, Concentration 198.0 uM, Number of replicates 2.0, Standard deviation 3.769614855213321 %",-2.7%
same,inhibition,"PRVABC59, Concentration 500.0 uM, Number of replicates 2.0, Standard deviation 0.5748218164645568 %",-3.15%
O=Cc1ccc(N2CCC(C(=O)NCC(=O)c3ccccc3F)CC2)cc1,inhibition,[2],13.6%
Cc1cc(CO)c2cccc(NC(=O)C[C@H]3CCCN3)c2n1,inhibition,"PRVABC59, Concentration 49.95 uM, Number of replicates 2.0, Standard deviation 2.649580260544395 %",3.54%
same,inhibition,"PRVABC59, Concentration 99.9 uM, Number of replicates 2.0, Standard deviation 2.639543831508496 %",13.9%
O=Cc1ccc(N2CCC(C(=O)Nc3cc(C(F)(F)F)ccc3N3CCCC3)CC2)cc1,inhibition,[2],-4.32%
CN(C)Cc1cc(C(=O)Nc2cc(Cl)cc(C(=O)NC(C)(C)CO)c2)ccn1,inhibition,"PRVABC59, Concentration 49.5 uM, Number of replicates 2.0, Standard deviation 0.7343048168802037 %",3.54%
same,inhibition,"PRVABC59, Concentration 99.01 uM, Number of replicates 2.0, Standard deviation 0.19075528766115404 %",7.41%
same,inhibition,"PRVABC59, Concentration 198.0 uM, Number of replicates 2.0, Standard deviation 0.5886748112205115 %",14.7%
